Measurements as given in ChEMBL document CHEMBL4888484, “Replenishing the malaria drug discovery pipeline: Screening and hit evaluation of the MMV Hit Generation Library 1 (HGL1) against asexual blood stage Plasmodium falciparum ,using a nano luciferase reporter read-out” (2022).
Values joined by “and” are separate entries in the source; they are usually repeats but may differ in a detail not shown here. Equal values may be shown once. Among all 150,000 compounds or so, about 540 (0.36%) showed an effect of 50% or more. This is one part of the list.

Test system: Plasmodium falciparum
Experiment: Primary screen in NF54 nanoGlo assay, in single point, at 2uM, 72h; a lower Z score goes with more inhibition
Format: functional, Erythrocyte
Settings: timepoint 72 hour

Compound	% Inhibition	Z score	% Inhibition (2 µM)
C#CCN(CC#C)C(=O)c1cc(S(N)(=O)=O)cc(Cl)c1F	-4%	0.65	
CC(C)CN1CCCn2nc(CNc3ncnc4c3CCC4)cc2C1	-1%	0.14	
O=C(CCCn1cnnn1)Nc1ccc(-c2nc[nH]n2)cc1			1% and -5%
CS(=O)(=O)NC[C@H]1CCCN(c2nc(C(F)(F)F)ns2)C1	-10%	1.3	
NC(=O)[C@@H]1CCCN1C(=O)c1csc2ccccc12	-9%	1.23	
CCOC(=O)CN(C(=O)C1CCCOC1C)C(C)(C)C (centres undefined)	-3%	0.42	
C[C@H]1CCCN(C(=O)Nc2ncc(Cc3ccccc3)s2)C1	-3%	0.32	
CCN(C(=O)c1ccc(-c2ccc(Cl)cc2F)cc1)C1CCOCC1	-7%	0.93	
CCN1CCCN(S(=O)(=O)N2CC(C)CC(C)C2)CC1 (centres undefined)	-2%	0.25	
CNC(=O)[C@H](C1CCCC1)N1CCN(C(=O)c2ccc(Cl)cc2Cl)CC1	12%	-1.44	
CC(=O)N1CCN(c2nnc(C)c(C)c2C#N)CC1	-12%	1.25	
CC(=O)N1CCN(C2CN(Cc3ccc(F)cc3)CC2C)CC1 (centres undefined)	4%	-0.33	
N#Cc1c(CN2CCc3cncnc3C2)cn2ccccc12	-1%	0.23	
Fc1cccnc1N1CCOC2(CCC2)C1	-15%	1.72	
Cc1noc(C)c1CN1C[C@H]2CC[C@@H](C1)N(Cc1nnc(-c3ccccc3)o1)C2	-23%	2.23	
Cc1nnc(CN(CCOc2ccccc2)C[C@H]2CCCO2)s1	-9%	1.34	
O=C1[C@@H]2CC[C@@H](CN(c3nc4ccccc4s3)C2)N1Cc1ccccc1	6%	-1.22	
CCNC(=O)NC(=O)CNc1cc(CO)ccc1C	-7%	1.17	
CC(C)C[C@@H]1N[C@H](C(=O)NC2CCCC2)Cc2cn(C)c3cccc1c23	36%	-4.04	
CO[C@@H](CS(=O)(=O)Nc1cc(C#N)ccc1F)C1CC1	3%	-0.49	
Cc1cc(CN=C(N)NC2CC2)ccc1F	-7%	0.63	
O=C(Nc1ccc(Nc2ncccn2)cc1)C1CCC(F)(F)CC1	-2%	0.38	
COCCc1nc(CCn2ccc(C)n2)n(-c2ccc(C)cc2C)n1	-7%	1.01	
CC1CCCC1(C#N)NC(=O)CCC(=O)OC(C)(C)C (centres undefined)	-6%	0.63	
CN1CC2(CN(C(=O)c3cc4cccc(Cl)c4s3)C2)OC1=O	-3%	0.42	
CCC(C)(C)c1ccc(OCCCCNC(=O)c2cc(-c3cccc(OC)c3)nn2-c2cc(C)ccc2C)c(C(C)(C)CC)c1	-9%	1	
COCCN(Cc1ccc(OC)c(OCc2nc(CO)cs2)c1)C(=O)c1ccc(Cl)cc1	-6%	1.06	
CC(C)CN(Cc1ccsc1)C(=O)c1cnc(N2CCOCC2)nc1	-9%	0.87	

Compound	% Inhibition	Z score	% Inhibition (2 µM)
CN(CCc1ccccn1)c1cncc(Br)c1	-11%	1.43	
O=C(NCc1ccc2c(c1)OCO2)[C@H]1CC(=O)N(C2CCCCCCC2)C1	-5%	0.86	
COCCNC(=O)[C@H]1C[C@H](Oc2cccnc2)CN1S(=O)(=O)c1ccc(OC)cc1	-16%	3	
Cn1cncc1CCC(=O)NCC1(c2cccc(F)c2F)CCCC1	-1%	0.07	
CCC1CN(C(C)=O)CCC1NCc1cccc2[nH]ccc12 (centres undefined)	6%	-0.76	
COC(=O)[C@H](NC(=O)c1ccc2cc[nH]c2c1)c1cccc(O)c1	-4%	0.51	
Cc1ncc(C(=O)Nc2ncccc2-c2ccccc2)c(C)n1	-14%	2.23	
Cc1cc(C)c2c(CC(=O)N(C)[C@H]3COC[C@@H]3O)coc2c1C	9%	-1.68	
Cc1cnn([C@@H](C)CNC(=O)CCn2cncn2)c1	-6%	1.06	
Cc1cc(=O)n2nc(-c3ccccc3)nc2n1CC(=O)Nc1ccc(F)cc1	-8%	1.04	
Clc1ccc(Cn2ncc3c(N4CCCCC4)ncnc32)cc1	12%	-1.97	
O=C(COc1ccc(N2C[C@@H](C(=O)NCCc3ccccc3)CC2=O)cc1)Nc1ccc(F)cc1	-2%	0.24	
O=C(Nc1cnccn1)c1cccc(-n2ccnn2)c1	2%	-0.47	
CCOc1oc(C(=O)NCCc2ccc(S(N)(=O)=O)cc2)nc1C	-10%	2.01	
COc1ccc(C(=O)NC2CCS(=O)(=O)CC2)cn1	-20%	2.19	
COc1ccc(C(=O)N2Cc3cccnc3C2)cc1F	-16%	1.82	
CC[C@H]1CCCN(CC(=O)Nc2sc3c(c2C#N)CCCCC3)C1	-8%	1.22	
CC1CC1NC(=NCC1CCCO1)NCc1nc(C2CC2)no1 (centres undefined)	-5%	0.66	
CC[C@@H](CO)NC(=O)Nc1ccccc1N(C)CC	4%	-0.61	
Cc1ccccc1NC(=O)c1cccn1-c1cccnc1C	-5%	0.5	
CN(Cc1cc2cc(F)ccc2[nH]1)S(=O)(=O)C1CC1	-14%	1.45	
COc1ccc(Oc2ccc(-c3noc([C@H]4CC(=O)N(c5ccccc5)C4)n3)cc2)cc1	-3%	0.31	
COCCN(CC(=O)N1N=C(c2cccn2C)C[C@H]1c1ccccc1)C(=O)C(C)C	-5%	0.56	
O=C(N1CCCC1)N1C[C@@H]2[C@@](C(F)(F)F)(CCCS2(=O)=O)C1	3%	-0.49	
COc1ccc(CNCc2cc(O)c3cc(F)ccc3n2)c(OC)c1	-22%	2.04	
Cc1n[nH]cc1CN(C)C(=O)c1cn2cc(Cl)cnc2n1	-9%	0.85	
CNC(=O)c1cccc(Cn2nnnc2-c2ccncc2)c1	-18%	2.92	
